Some of the results follow.

First the molecules themselves.
T1: UNK ZnF1-3 (human, UniProt Q9C0B0 31-174)
T1 sequence: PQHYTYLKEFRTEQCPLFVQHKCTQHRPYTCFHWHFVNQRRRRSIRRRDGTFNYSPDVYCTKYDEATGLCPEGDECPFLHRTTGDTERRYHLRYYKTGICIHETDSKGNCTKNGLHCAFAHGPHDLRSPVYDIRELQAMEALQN

B1: chr16:94690093:94690094:+_ENSMUSG00000040785_ENSMUST00000117648|mus_hu|mus_mus_mus_hu_True|28_58 (ssRNA)
RNA: GGGAGUUCUACAGUCCGACGAUCGGGCUGGGAUGACGGACACACAGCCUCGAUUCCAGGGGGAAAAAGUCUUAGUCAAUACUAAUUAAAAAGUGUUAAUGAUUUUUAUUACCAAAAUUACAUCUAUAAAAGAUGAAAAGCAAACAACAGAGGAUUGAGCAUCA
B2: chr8:104447970:104447971:+_ENSG00000164934_ENST00000297579|hu_hu|hu_hu_hu_mus_False|18_98 (ssRNA)
RNA: GGGAGUUCUACAGUCCGACGAUCAUACACUUCCCUGCUUCGACUUUUGUCCACAGGAAAGAUUCUAAUAGACUUAUCAAAGCUGGCAGACACAAAUUCCUUCCCAGUGGGAGAGUAAUCCACAUCAAGUACUGCAGACACGUGCAACAGAGGAUUGAGCAUCA
B3: chr14:66974463:66974464:+_ENSMUSG00000022044_ENSMUST00000074523|mus_hu|mus_mus_mus_hu_False|48_58 (ssRNA)
RNA: GGGAGUUCUACAGUCCGACGAUCUUGUAGGACGACUUAUUCAGGGGAUCGGCCAGGAAGCAGGAGCAGAACAAGGACACUAGUGGGAGUUCCUUCAUCUUCUCUUUGUAGGCAGCAAGGGUCAUGUUUCUGGGAUCUGGUGGCCAACAGAGGAUUGAGCAUCA
B4: chr1:220276048:220276049:+_ENSG00000067704_ENST00000302637|hu_hu|hu_hu_hu_mus_True|68_108 (ssRNA)
RNA: GGGAGUUCUACAGUCCGACGAUCGCAAACAGCUUCAUUGGCGGGAAUUGUCCAAGGCUGGGUGGUCCAGACCAAAACGCUAACAGGGGAUGAGGCAUCUGUAAGAGACUCCAACUUCGGAGGAGGUCUCAGGAGGGGGAAUCUCAACAGAGGAUUGAGCAUCA
B5: chr14:62214197:62214198:+_ENSG00000100644_ENST00000337138|hu_mus|motif|central (ssRNA)
RNA: GGGAGUUCUACAGUCCGACGAUCAAAGCAUUAUUUUCAUGUAAAACAUGAAAAAAAUGAGUAAAAAGUUUUCAACUGCCGGUGAUCAUGAUGAGAAUUUACUGCUUUCUUAAAAAAUUAUAUUGGCAUUUCAUUAAAAAUAAUCAACAGAGGAUUGAGCAUCA
B6: 65460711_65465984_1206_CDS_ENSG00000153914_ENST00000334121|human|control|control (ssRNA)
RNA: GGGAGUUCUACAGUCCGACGAUCACUCCUUGACUUCCGUCUCUCCCUUGAUUUAGAGCGUUUUUUAUGUGGGCUCUUAGAUCUACGUCUGUCUUUCUGUCUUGAACGUGAUCUAUUAUGGGAUCUACUCCUGUGUUUUGAUUGCAACAGAGGAUUGAGCAUCA
B7: chr11:69480760:69480761:-_ENSMUSG00000059796_ENSMUST00000163666|mus_hu|FALSE|FALSE (ssRNA)
RNA: GGGAGUUCUACAGUCCGACGAUCUUUUGGGAGAAGAGCCGGCGCCUGGGGCAAGAGCCUACCCCAAAGAAAAGGGUGUCUAAAAUGUUCACGGUUCCUUCUUUUGCCUCAAAAAGUGACAUUUAUUCAAAGAAAAAAAAUGACCAACAGAGGAUUGAGCAUCA
B8: chr9:91931296:91931297:+_ENSG00000123975_ENST00000314355|hu_hu|hu_hu_hu_mus_True|98_108 (ssRNA)
RNA: GGGAGUUCUACAGUCCGACGAUCAGAUUGACGAUCCCCAGAUAAACUUCAUUUUUGUUGUUCUUUUGGAAGAGGUCGUCUAAAGAGAAGAAUAUGCGGUUCUGGCUCAUGAAUCAUGUAAUGAACCCAUCCUAGACUCUGUUGCAACAGAGGAUUGAGCAUCA
B9: chr3:176740097:176740098:-_ENSG00000177565_ENST00000430069|hu_mus|hu_hu_hu_mus_True|38_48 (ssRNA)
RNA: GGGAGUUCUACAGUCCGACGAUCUGUUUUGUAUACCACAAAAGGAGGCACUUUCAGUAUCUGCAAAAGGUGUUUAGUCCUAAAACAUACUUACCUAGAGAAUAAUUCAGGAAAACAAUCUGUUACACUCUAAGACCUACUCCACAACAGAGGAUUGAGCAUCA
B10: chr4:25749455:25749456:-_ENSG00000091490_ENST00000264868|hu_hu|hu_hu_hu_mus_False|1_88 (ssRNA)
RNA: GGGAGUUCUACAGUCCGACGAUCGCACUAUGACCUCUAGAAAAAUCAUUCAAGGAGAAAAAUGUAAACCAAUGUACAAUGUUAUCGCCUUCCCUGUGUGUGGAGUGUUUGUCUCAAGGCUCCUUCUAGCUGCUGGACUGCUAGCAACAGAGGAUUGAGCAUCA
B11: 71360418_71360538_892_CDS_ENSG00000124383_ENST00000244230|human|control|control (ssRNA)
RNA: GGGAGUUCUACAGUCCGACGAUCUACUAUGGACUUUUCUCUUGGUUUUCCCUGUCCUUUGUUUUGCACCUUGCUCUGCUGUUCCAAUUUGCUGAUAUCAAAGUCAAGGUCAGAAUCCUCAUCACUGAAAACGGGGCUUUUCCUCAACAGAGGAUUGAGCAUCA
B12: chr16:94664741:94664742:+_ENSMUSG00000040785_ENSMUST00000117648|mus_hu|mus_mus_mus_hu_False|28_78 (ssRNA)
RNA: GGGAGUUCUACAGUCCGACGAUCUGGUACUGAUCUUGGUAGCUGAUAUUCAGGAGAAAUGUUGGCCAAGGGUGUAUAUAUGCUGGUGUACUGGGGCAAACCUGGUACCAUGUUAAUGUAUGCUGGCGGUGUCUGGGUGAUAUCCAACAGAGGAUUGAGCAUCA
B13: chr10:5827197:5827198:-_ENSG00000057608_ENST00000380191|perfect_dup|FALSE|FALSE (ssRNA)
RNA: GGGAGUUCUACAGUCCGACGAUCAUAAAGGUAUGGGCUUUUGCCAUAUCUUGCCAAAGAUUCACUGUAAAGUUUAAUUCUAUUAAUGGUUUCAUAACACGGUUGAUCUAAGUAAUCAUCAGUUCUGUAAAGUGCAAGAGCAUGCAACAGAGGAUUGAGCAUCA
B14: chr3:196311055:196311056:+_ENSG00000174013_ENST00000440469|hu_hu|motif|central (ssRNA)
RNA: GGGAGUUCUACAGUCCGACGAUCGACCUUUGGAAGUCCUCUAAAAGCAACCCCCAGGAACUCAUAUCCACGUUCAAAAGCGGAAGUCUUAUCUUCCAUGUCCAAGAUGACUCGAAUUCUUUCUCCUAUCUGAUAUUUUGGUGCCAACAGAGGAUUGAGCAUCA
B15: chr13:100518589:100518590:+_ENSG00000125246_ENST00000339105|hu_mus|motif|central (ssRNA)
RNA: GGGAGUUCUACAGUCCGACGAUCUUCCCUUGACUGUCUGAGAAGUCCGUCUUCAUCUCGGAAGUCAAUGUACACAAGAUCGGUGGCUUGUAGGCCAAAGGCUUUUGCCGUGACAACAACCUUCUGCCGGGCAUAGAGGAUGUCCAACAGAGGAUUGAGCAUCA
B16: chr16:94690093:94690094:+_ENSMUSG00000040785_ENSMUST00000117648|mus_hu|mus_mus_mus_hu_True|38_88 (ssRNA)
RNA: GGGAGUUCUACAGUCCGACGAUCGGGCUGGGAUGACGGACACACAGAUCUUCCCAGAGGGGGAAAAAGUCUUAGUCGAUACUAAUUAAAAAGUGUUUUUAUAAUUGGAAAAUCAGAUUACAUCUAUAAAAGAUGAAAAGCAAACAACAGAGGAUUGAGCAUCA
B17: chr2:84536551:84536552:-_ENSMUSG00000034075_ENSMUST00000035840|mus_hu|FALSE|FALSE (ssRNA)
RNA: GGGAGUUCUACAGUCCGACGAUCCUUGUCCUCAUCCUCCUCAGCUCGAGGGAAAAUCCCUGGGUCCAUGAAGGUGGCCAUGCUGAAGUUGGCCAACACAAAGAGAAACAUAAUUGCAUUGUAGAUGGGCACUGCAGGUGACACCAACAGAGGAUUGAGCAUCA
B18: chr3:52726942:52726943:+_ENSG00000163938_ENST00000418458|hu_mus|motif|central (ssRNA)
RNA: GGGAGUUCUACAGUCCGACGAUCCCGAAGGGCAAGUGCAGUGGGGGAGUUACAAGGUGAGAUAAUUAGGCAUGGACUGUCGGUGAUUGUGAUCUGCUUGUCUAAAGGGACAAUCUGCAUGCUCCUUGUAAGUCCCAUGGAAAUCAACAGAGGAUUGAGCAUCA
B19: 17148536_17150076_701_CDS_ENSMUSG00000025777_ENSMUST00000026879|mouse|control|control (ssRNA)
RNA: GGGAGUUCUACAGUCCGACGAUCAUCCAAGACCUUCUCCAACUCAUCAAGAAUUUUCUUCAAGUAUUUGACAUUGUCAUGAUCAAGCAGCUUUGACUUAAGUCGCUUCUGUUUGGCAAUGUAUGCCUCUUGUAAGUCAGGGUUCAACAGAGGAUUGAGCAUCA
B20: 35972526_35972646_928_CDS_ENSMUSG00000001525_ENSMUST00000001566|mouse|control|control (ssRNA)
RNA: GGGAGUUCUACAGUCCGACGAUCCUGGCCCGGGAAACGGAGGCAGGUGGUGACGCCGCUCAUGGUGGCCGAGACGAGAUGGUUCAGGUCUCCGUAGGUUGGCGUGGUGAGCUUGAGGGUACGGAAGCAGAUGUCGUAGAGGGCCAACAGAGGAUUGAGCAUCA
B21: chr7:7679991:7679992:-_ENSG00000106399_ENST00000396682|hu_hu|hu_hu_hu_mus_False|28_38 (ssRNA)
RNA: GGGAGUUCUACAGUCCGACGAUCUGGGAUGAAUCUUUUCCAGCUUCCCCACGAAGCACACGGGCCGGUCGAUAUACUGUGGUAACAUGCUGGCGUUGAUGCGCGACCUGGGCAAGUGCAUUAUGUCCUCCAUGAUUCUGCCGCCAACAGAGGAUUGAGCAUCA
B22: chr3:176767854:176767855:-_ENSG00000177565_ENST00000430069|hu_hu|hu_hu_hu_mus_False|28_108 (ssRNA)
RNA: GGGAGUUCUACAGUCCGACGAUCGACAUCCUUGUUGCUGGGCACGUCCUGCCCUCCUUCCCGUAUGCAGUGUCUAAGCACGAGCUGCGUAGGGCCACUCGUGCUGUUCUCACUAAGGUUCCAGAUUCUUGCCGUGGAGUCUCCCAACAGAGGAUUGAGCAUCA

For the test, the target named is T1, UNK ZnF1-3. Nature of the test: nsRBNS (natural sequence RNA bind-n-seq); RBNS binding buffer (assumed for nsRBNS): 25 mM Tris pH 7.5, 150 mM KCl, 3 mM MgCl2, 0.01% Triton X-100, 500 ug/ml BSA, 20 U/ml SUPERase-In, 4 C; UNK is unkempt and MSI1 is Musashi-1; names of the RNAs are library labels; protein concentration not given here; high values mean tight binding.
B1 yielded a binding signal of 1.62 enrichment R. In turn, B2 returned a binding signal of 0.912 enrichment R. Regarding B3, the binding signal was found to be 2.47 enrichment R. The molecule B4 gave a binding signal of 2.42 enrichment R. For B5, the binding signal turned out to be 2.16 enrichment R.

B6 had a binding signal of 0.22 enrichment R. As for B7, the figure is 1.82 enrichment R; as for B8, 0.959 enrichment R; as for B9, 0.812 enrichment R. For B10, the binding signal came out at 0.991 enrichment R. In the case of B11, the binding signal worked out at 0.52 enrichment R. Take B12: the binding signal came to 0.902 enrichment R. As for B13, the binding signal was 0.743 enrichment R. Turning to B14, the binding signal is 1.01 enrichment R. B15 displayed a binding signal of 0.919 enrichment R. Take B16: the binding signal was found to be 2.58 enrichment R. As for B17, the figure is 1.05 enrichment R; as for B18, 0.821 enrichment R. For the molecule B19, the binding signal came out at 0.437 enrichment R. Molecule B20 had a binding signal of 1.33 enrichment R. As for B21, the figure is 0.621 enrichment R. B22 registered a binding signal of 0.502 enrichment R.
